Data from the RNAGym collection of RNA variant scans (doi:10.1093/nar/gkz1192).
Read counts are not given, so values of variants with three or more changes are uncertain.

B1: CPEB3 Ribozyme (parent)
chain: UAACAGGGGGCCACAGCAGAAGCGUUCACGUCGCAGCCCCUGUCAGAUUCUGGUGAAUCUGCGAAUUCUGCUGUAUAUCUC

Variants of: B1
Experiment: self-cleavage, relative activity (ratio to wild type); higher = more cleavage; in vitro, sequencing
Method in brief: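 Barcoded CPEB3 ribozyme mutants, produced by rounds of error-prone PCR, self-cleaved while being transcribed with T7 RNA polymerase for 5 hours at 37°C and during a subsequent 15 min DNase I step before EDTA was added. Sequencing of template-switched cDNA on Illumina gave cleaved and total reads, and DNA sequencing assigned barcodes to variants. Each variant's relative activity is its cleaved/total read fraction divided by the unmutated ribozyme's fraction, averaged across three batches. A variant needed a minimum of 5 reads.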

| Variant | self-cleavage |
| --- | --- |
| G6U G9U A13G | 0.07 |
| G6A A20U U43A | 0.35 |
| G6A A18U A28C | 0.21 |
| G6A A13U C14U A18U C27G A45C U54C | 0.06 |
| A5U G36A U69C | 0.05 |
| G7C U51A A64G U66C | 0.07 |
| G6U A18G U43C U51G A65G G73C | 0.05 |
| G6A A13G C37A U80C | 0.08 |
| G6A A18G A20U A21U C40A A45G U51C | 0.05 |
| G7A A18G A64G U76C A77G | 0.04 |
| G7C U41C A57G U78C | 0.31 |
| A5U U31C U60A U67C | 0.22 |
| G6A G8U U69C | 0.16 |
| G7A A15G U60C | 0.08 |
| A5U U60C U72C | 0.55 |
| G6U A18U U60A | 0.38 |
| G6A G53A A56U U58C | 0.05 |
| G6A A35U C39A U43C U58A U69G | 0.04 |
| A5U U31C U41C | 0.78 |
| G7A U48C G55A | 0.19 |
| G6A U26A U54A G63C U69G U78A | 0.02 |
| G6A C11U A45G U49C A64C | 0.06 |
| G6A U25C A56C | 0.11 |
| G6A A13U U26A A75G | 0.12 |

| Variant | self-cleavage |
| --- | --- |
| G6A A21U C50A U58A | 0.07 |
| G6U U48C G52U U67A U69C | 0.23 |
| A5U U26A U60C | 0.37 |
| A5U U51G A64U C68U | 0.28 |
| G7C G8A A21U U25G U26A A56G U72A | 0.06 |
| G6A A15G C23G C27G A35U U67A | 0.05 |
| G6U U41C U48C | 0.33 |
| G6U G9A C23A U25G A56C | 0.2 |
| G6U A15G C17U A35U U43C U49C G61C | 0.12 |
| G6A G10A A18U G63A U72A | 0.05 |
| A5U U31A U41C G46A U48G | 0.11 |
| G6U A15U A47C | 0 |
| G6U A28U A35U U43C A45G U54C G61C | 0.04 |
| G7A U25C U54A | 0.08 |
| A5U U26C U49C A64G U67A U72C | 0.1 |
| G6U C11U A21G U26C A35U C79U | 0.02 |
| G6A A13C A45G U49C A57G | 0.18 |
| G7A G10A A64G | 0.07 |
| G6U G8A A13G U25A A45G | 0.07 |
| G6A A13U C34A G52C | 0.11 |
| G6A A20G U48C U51C A57G | 0.12 |
| G7A A15G A45G U54C A64U U69C | 0.03 |
| G6A U26C U51A A56G U76A U78C | 0.07 |
| A5U U41C A56G U60C A64G A77G | 0.3 |

| Variant | self-cleavage |
| --- | --- |
| G6A C12A U31C U67A | 0.07 |
| G7C U54C A56U U60C U74C A75G | 0.05 |
| G7A G16C A21G G36A U66C U69C | 0.09 |
| A5U U26A U43A | 0.25 |
| G7A U43C U60C U66C U80C | 0.06 |
| G6U A35G A47U U66C | 0.25 |
| G6A A21G U31C U67A | 0.05 |
| A5U U51C A56G U58C A75G U80C | 0.2 |
| G6A A56G G70C | 0.08 |
| G6A A18U U31C A35U U54C | 0.15 |
| G6A C12A A21G G22A U54C | 0.07 |
| A5U U67C U80A | 0.11 |
| G6A U67C U69A U72C | 0.06 |
| G6A A15G U26A U76C | 0.09 |
| G6C A18G U25C U60C | 0.43 |
| G7U A18G U48C | 0.22 |
| G6C C44U A56G | 0.29 |
| G7A A21G A47G A65G | 0.13 |
| G6A A18C U31C U51C A77G U80C | 0.21 |
| G7A A21U C37G C59G A64G | 0.03 |
| A5U U43C A56G | 0.34 |
| G7U A15U U80C | 0.25 |
| G6A U48C U69C A75G U80A | 0.08 |
| G7A U26G U51A U54A A64U | 0.06 |

| Variant | self-cleavage |
| --- | --- |
| G6C C32A A35G U43C U69C | 0.23 |
| G6A A15G U25C U26C C44U A64G | 0.05 |
| G7A C23G A35U C37A A57G U74A | 0.02 |
| G7A A15U U25C U74A | 0.36 |
| G7A A18U A35G U72C | 0.35 |
| G7C U25C A45C A64U | 0.15 |
| G6A U31C U41C U54A | 0.1 |
| G7A U49A U54A A75G | 0.04 |
| G6U U41C U49C G52A | 0.26 |
| A5U U26A U48C U60A U72G | 0.3 |
| A5U U26C A45G G55A U72C | 0.47 |
| G6U A13G U31G A45U A64G U78C | 0.35 |
| G6A A35U A64G U76A | 0.1 |
| G7C A18G U43C G52A U60C | 0.37 |
| G6U U26C A28G | 0.38 |
| G6U A18G U26A U60C U76A | 0.06 |
| A5U G70A U80A | 1.03 |
| A5U U31A U41A U60C U69C U72A | 0.08 |
| G6A C59U A75U | 0.08 |
| G6A C12U A28G U41C C81A | 0.23 |
| G6A G10A A21G U69C U72C | 0.06 |
| G6A C37U U51A U69C | 0.13 |
| G6A U51A U54C A64U | 0.15 |
| G6A U54C C79U | 0 |

| Variant | self-cleavage |
| --- | --- |
| G7A U51G U69C | 0.09 |
| G6U U25C U49C U51C A65G | 0.19 |
| G7A C12G A28U U80C | 0.19 |
| G6A A21G G30A A57G U66C | 0.13 |
| G6C C34A U41A C79U | 0.36 |
| G6A A28U U66A A77U | 0.1 |
| G6A A20G U60C | 0.35 |
| G7A U51A C62U U67C U74C | 0.12 |
| G6U U26C C44G U78C | 0.21 |
| G6A A18G A57G U58C | 0.09 |
| A5U U26C U72C | 0.8 |
| G7A U26C U31A A35U U49C U66C A75G | 0.03 |
| G6A A45G U67C U72C | 0.09 |
| G6C U26A A56U | 0.2 |
| G7C G30A A75G | 0.4 |
| A5U U31C G61A U66C | 0.21 |
| G7A U60A U80A | 0.08 |
| G6A C38U U72A | 0.16 |
| A5U U69A U80A | 1.08 |
| G7C C32A A77U | 0.24 |
| G7A A13U U58G | 0.24 |
| G6A U43A U60A U72C | 0.15 |
| A5U U41A U60A U78A | 0.14 |
| G6U C23G A45U | 0.11 |

| Variant | self-cleavage |
| --- | --- |
| A5U U41C U51C | 0.94 |
| G7C A13G G24A U25C U41C | 0.44 |
| G6A G8C A20U U31C U60A | 0.18 |
| G6A A20U U54A U69A | 0.11 |
| G7A C11U U51C | 0.11 |
| A5U U48C U54C U69C U80C | 0.19 |
| G7A U26A U54A A57G A65G U69C A77G | 0.06 |
| G7C A18G A45U U60C U69C | 0.06 |
| A5U U25C A35G | 0.38 |
| G7C A35C U48A | 0.04 |
| G6A A28U A64U U80C | 0.07 |
| G6U G9A C38U U72C U74C U80C | 0.1 |
| G6A C12A A18G C27G A28G A47C U54C | 0.17 |
| G6A A20G A28G A35G A45G U67A | 0.08 |
| G6A C27U A35G U69A A75U | 0.11 |
| G6U G30A G46A U67C A75U | 0.06 |
| A5U G30A U80C | 0.6 |
| A5U U43A A47G A56U | 0.51 |
| G6A G10A U49A A56G U72C | 0.2 |
| G6A U54A G61U | 0.16 |
| G7U A18G A21G U31C | 0.07 |
| G7A U31C A57G | 0.08 |
| G7C A15U U72C U78C | 0.65 |
| G6U A20U A57U | 0.09 |

| Variant | self-cleavage |
| --- | --- |
| A5U U60A U72C | 0.85 |
| G6A A13G A18G C40U | 0.25 |
| G6A C37U U51A | 0.07 |
| G6A A13C U80C | 0.42 |
| G7A A35U U69C U78C | 0.06 |
| A5U U25A A35U U54A | 0.17 |
| A5U U25C A28C A35G A64G C68U | 0.34 |
| G7C A18C U41C U67A A75G | 0.02 |
| A5U U25C U41G A56G | 0.2 |
| G6A G9U A28G A57G | 0.09 |
| G6A A28G A45G A75G | 0.03 |
| G7C U31C U41C A57G U72C C81U | 0.48 |
| G7C A28G C34U U67A U76C | 0.07 |
| G6A G10A C11G C34G | 0.31 |
| G7A A35U A47C A56U U69A U72C | 0.07 |
| G7A C38A U41G A56G A57G | 0.08 |
| G6A C38U U51G | 0.12 |
| G6C U25C U51A U67C U69A U74G | 0.06 |
| G6A A28G A56G A57G U60G U69C | 0.03 |
| G6C U41G U49A U74C U78A | 0.22 |
| A5U U60A U67C | 0.58 |
| G7C A13U A28G C34U C39A U69C U76C | 0.04 |
| A5U U26C C39A G46U A75G | 0.06 |
